# Reference: PMC4336329 (PLoS ONE, 2015)
# Out of some 310,000 compounds screened, about 2,200 (0.71%) showed an effect of 50% or more. Effects have a minus sign here. The list shows a part of the results.
# Biological target: human ether-à-go-go-related gene (hERG) potassium channel (human, UniProt Q12809)
# Assay: primary screen, population patch clamp on CHO cells stably expressing hERG
# Chain of human ether-à-go-go-related gene (hERG) potassium channel (Q12809 whole entry, looked up): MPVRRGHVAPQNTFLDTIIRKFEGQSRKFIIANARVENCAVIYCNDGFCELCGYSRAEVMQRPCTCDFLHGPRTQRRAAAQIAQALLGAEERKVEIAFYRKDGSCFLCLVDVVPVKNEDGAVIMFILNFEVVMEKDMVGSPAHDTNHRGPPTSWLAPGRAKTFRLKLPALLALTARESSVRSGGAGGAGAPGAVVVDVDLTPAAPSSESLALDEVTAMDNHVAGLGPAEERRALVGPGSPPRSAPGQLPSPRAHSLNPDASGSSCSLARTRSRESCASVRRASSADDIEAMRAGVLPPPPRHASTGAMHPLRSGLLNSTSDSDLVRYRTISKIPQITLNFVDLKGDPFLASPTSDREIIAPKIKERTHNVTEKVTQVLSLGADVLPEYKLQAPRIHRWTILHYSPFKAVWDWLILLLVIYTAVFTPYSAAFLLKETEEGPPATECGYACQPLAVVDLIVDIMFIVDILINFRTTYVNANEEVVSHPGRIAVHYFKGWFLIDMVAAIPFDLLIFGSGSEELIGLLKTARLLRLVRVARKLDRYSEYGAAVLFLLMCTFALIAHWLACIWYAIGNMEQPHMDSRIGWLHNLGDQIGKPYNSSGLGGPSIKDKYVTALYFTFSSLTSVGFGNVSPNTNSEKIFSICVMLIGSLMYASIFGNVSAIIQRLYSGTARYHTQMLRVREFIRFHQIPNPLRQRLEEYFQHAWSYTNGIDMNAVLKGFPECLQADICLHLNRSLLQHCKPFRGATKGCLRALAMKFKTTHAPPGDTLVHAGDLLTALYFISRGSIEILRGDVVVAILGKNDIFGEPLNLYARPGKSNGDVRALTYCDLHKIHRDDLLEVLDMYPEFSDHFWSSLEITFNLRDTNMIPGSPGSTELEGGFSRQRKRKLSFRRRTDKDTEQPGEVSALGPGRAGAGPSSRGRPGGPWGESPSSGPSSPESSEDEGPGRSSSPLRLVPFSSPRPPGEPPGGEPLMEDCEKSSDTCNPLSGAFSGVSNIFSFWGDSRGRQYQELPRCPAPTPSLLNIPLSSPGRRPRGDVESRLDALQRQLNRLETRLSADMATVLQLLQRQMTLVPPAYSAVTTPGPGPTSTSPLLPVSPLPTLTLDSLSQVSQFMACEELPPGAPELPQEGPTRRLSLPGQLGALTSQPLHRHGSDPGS
row,Compound,"hERG current change (%, negative = inhibition) at 1uM [%]"
1,COCCCNC(=O)CCCn1c(=O)c2ccccc2n(CC(=O)Nc2c(C)cccc2C)c1=O,19.3
2,CCN(CC(=O)NCc1ccc(Cl)cc1)C(=O)c1ccc(S(=O)(=O)N(C)C)cc1,2.21
3,COc1cc(=O)[nH]c(SC(C)C(=O)Nc2nc3c(s2)CCCC3)n1 (centres unmarked),17.6
4,O=C(O)c1ccccc1C(=O)Nc1n[nH]c(=S)s1,13.6
5,O=[N+]([O-])c1cc(Cl)cc(/C=N\Nc2ccccn2)c1O,11
6,O=C1C2C3C=CC(C3)C2C(=O)N1Cc1ccc(CN2C(=O)C3C4C=CC(C4)C3C2=O)cc1 (centres unmarked),-1.38
7,Cc1[nH]nc2c1C(c1ccc(F)cc1)C1=C(CC(C)(C)CC1=O)N2 (centres unmarked),9.66
8,COC(=O)[C@H](C)NC(=O)Nc1cc(OC)ccc1OC,1.76
9,COc1ccc(S(=O)(=O)Nc2ccccc2C)cc1,11.3
10,COC(=O)c1cn(N(C)c2ncc(C(F)(F)F)cc2Cl)c(=O)c2ccccc12,10.3
11,COc1ccc(OC)c(NC(=O)Nc2cccc(Cn3cccn3)c2)c1,-3.71
12,CN(C)Cc1c(-c2ccc(Cl)cc2)nc2ccccn12,16.7
13,Cc1cc(C(=O)NC2CCN(Cc3ccccc3)CC2)n[nH]1,9.06
14,COc1ccc(OCc2cc(C(=O)N3CCN(CC(=O)N(C)C)CC3)no2)c(Cl)c1,5.1
15,Cc1ccnc(Nc2nc3ccccc3o2)n1,4.58
16,Cc1nc2ccccc2c(=O)n1/N=C/c1c(O)ccc2oc3c(c12)CCCC3,8.14
17,CCOc1ncccc1C(=O)NCc1cccc(OC)c1,10.6
18,O=C(Nc1nc(-c2cccs2)cs1)c1cccc(S(=O)(=O)N2CCCCC2)c1,8.2
19,COc1ccc(OC)c(-c2csc(N3CCC(c4ccccc4)CC3)n2)c1,12.3

row,Compound,"hERG current change (%, negative = inhibition) at 1uM [%]"
1,O=C(NCc1ccco1)c1ccc(Cl)nc1,10.8
2,COc1ccc(CN2C(=O)CN(C3CCCCCC3)C(=O)C2c2ccc(OC)c(OC)c2)cc1 (centres unmarked),-6.87
3,CC(=O)c1ccc(N2CCN(C(=S)Nc3ccc(Cl)c(Cl)c3)CC2)cc1,18.3
4,CCOC(=O)C(C)Oc1cccc2c(=O)n(CC(=O)NCc3ccc(F)cc3)ccc12 (centres unmarked),5.51
5,C=CCn1c(Cc2cccs2)nnc1SCC(=O)c1ccc2ccccc2c1,3.18
6,Cc1cccc(NC(=O)CN2C(=O)NC(Cc3ccccc3)C2=O)c1 (centres unmarked),7.75
7,CSc1ncc(CN2CCCC(C(=O)Nc3ccc(-c4ccco4)cc3)C2)cn1 (centres unmarked),16
8,O=C(CCC1CCCCC1)Nc1c2c(nn1-c1ccc(F)cc1)CS(=O)(=O)C2,-12.5
9,O=C1c2ccccc2S(=O)(=O)c2cc(C(=O)N(c3ccccn3)c3ccccn3)ccc21,13.9
10,CCOC(=O)c1ccc(N2N=C(C)/C(=C/C=C/c3ccco3)C2=O)cc1,-4.65
11,O=C(Nc1ccccc1Cl)c1ccc(S(=O)(=O)NCC2CCCO2)cc1 (centres unmarked),-7.62
12,CC1(C)C(=O)OC(c2ccc([N+](=O)[O-])cc2)C(C)(C)C1=O (centres unmarked),17
13,COc1ccc(OC)c(S(=O)(=O)NCCCc2ccccc2)c1,15
14,CC(=O)Nc1cccc(C(=O)Nc2cccnc2)c1,12
15,CC(C)c1nnc(NC(=O)COc2ccccc2[N+](=O)[O-])s1,0.183
16,CCOc1cccc(-c2nnc3sc(-c4ccco4)nn23)c1,12.1
17,Cc1ccc(C(=O)NC2CCN(CC(=O)Nc3ccccc3Cl)CC2)cc1,-16.4
18,CC(=O)Nc1ccc(NC(=O)C(F)(F)F)cc1,19.1
19,CCOc1ccc(C(=O)c2cc3ccc(O)cc3oc2=O)cc1,13.1

row,Compound,"hERG current change (%, negative = inhibition) at 1uM [%]"
1,OCc1nc2ccccc2n1CC(O)Cn1ccc2ccccc21 (centres unmarked),11.2
2,CCNCC(O)c1cccc(O)c1 (centres unmarked),10.8
3,CCCCCCNC(=O)c1cc(S(=O)(=O)N2CCc3ccccc32)ccc1F,16.6
4,COc1ccccc1N1CCN(C(=O)c2cc3cc(C)ccc3[nH]2)CC1,9.45
5,CCc1noc(C)c1C(=O)Nc1nc(-c2ccc(OC)cc2)cs1,1.33
6,COc1cccc(/C=N/N2CCN(c3ccncc3S(=O)(=O)N3CCCCC3)CC2)c1,11.5
7,CCc1ccc(CN2CCC(Oc3ccc(C(=O)N4CCCCC4)cc3)CC2)cc1,-61.5
8,COc1cc(C2NC(C(=O)O)Cc3c2[nH]c2ccccc32)cc(OC)c1OC (centres unmarked),6.63
9,CC(=O)c1c(OC(=O)c2ccco2)c2ccccc2n1C,9.09
10,CCOc1cc(/C=C2\C(=O)N(Cc3ccco3)C(C)=C2C(=O)OC)ccc1O,2.04
11,Cc1ccc(-c2nnn(CC(=O)N(Cc3ccc(F)cc3)C(C(=O)NC3CCCC3)c3ccncc3)n2)o1 (centres unmarked),9.15
12,COc1cc(/C=N/NC(=S)NCCN2CCOCC2)cc(OC)c1OC,0.872
13,CC(=O)Oc1ccc2nc(/C=C/c3ccc(C=O)cc3)oc(=O)c2c1,12.6
14,Cn1cccc1/C=N/n1c(-c2ccco2)n[nH]c1=S,8.26
15,CCOC(=O)C(=NCC1CCCO1)NNc1cc(Cl)ccc1Cl (centres unmarked),2.2
16,CCC(C)(C)NC(=O)/C=C/c1cc(OC)c(OC)c(S(=O)(=O)N2CCc3ccccc32)c1,2.79
17,COC(=O)C1=C(c2ccc(S(C)(=O)=O)cc2)C[C@@H]2CC[C@H]1N2C(=O)NCCCOC(C)C,13.2
18,COc1ccc2c(c1)OCC1=C2CCC2(C)C(=O)CC=C12 (centres unmarked),10.6
